Reference: PMC9911399, “Two distinct binding modes provide the RNA-binding protein RbFox with extraordinary sequence specificity”
Changes are numbered by the printed parent chain; changes in the protein carry UniProt numbers. The list shows a part of the results.

T1: RBFOX1 RRM RbFoxmut (Fox-RRM*) (Homo sapiens, UniProt Q9NWB1 109-208, R118D;E147R;N151S;E152T)
T1 sequence: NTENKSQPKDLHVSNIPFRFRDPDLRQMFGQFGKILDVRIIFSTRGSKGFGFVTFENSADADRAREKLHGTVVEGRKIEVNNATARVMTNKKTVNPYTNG

B1: CUCCUAG (DNA:RNA)
RNA: GGGAGACCGGAAUUCAGAUUGUCCCUCCUAGUUAAAUCCCGUCGUAGCCACCA
DNA 1: CAATCTGAATTCCGGTCTCCC
DNA 2: TGGTGGCTACGACGGGATT
B2: GCUCCUU (DNA:RNA)
RNA: B1 RNA with C25G, U26C, C27U, U29C, A30U, G31U
DNA 1: CAATCTGAATTCCGGTCTCCC
DNA 2: TGGTGGCTACGACGGGATT
B3: CGGCGCC (DNA:RNA)
RNA: B1 RNA with U26G, C27G, U29G, A30C, G31C
DNA 1: CAATCTGAATTCCGGTCTCCC
DNA 2: TGGTGGCTACGACGGGATT
B4: CACUCAA (DNA:RNA)
RNA: B1 RNA with U26A, C28U, U29C, G31A
DNA 1: CAATCTGAATTCCGGTCTCCC
DNA 2: TGGTGGCTACGACGGGATT
B5: GGCACAU (DNA:RNA)
RNA: B1 RNA with C25G, U26G, C28A, U29C, G31U
DNA 1: CAATCTGAATTCCGGTCTCCC
DNA 2: TGGTGGCTACGACGGGATT
B6: GAUGUCA (DNA:RNA)
RNA: B1 RNA with C25G, U26A, C27U, C28G, A30C, G31A
DNA 1: CAATCTGAATTCCGGTCTCCC
DNA 2: TGGTGGCTACGACGGGATT
B7: CGCAUCG (DNA:RNA)
RNA: B1 RNA with U26G, C28A, A30C
DNA 1: CAATCTGAATTCCGGTCTCCC
DNA 2: TGGTGGCTACGACGGGATT
B8: CACUUUC (DNA:RNA)
RNA: B1 RNA with U26A, C28U, A30U, G31C
DNA 1: CAATCTGAATTCCGGTCTCCC
DNA 2: TGGTGGCTACGACGGGATT
B9: GGUUUGU (DNA:RNA)
RNA: B1 RNA with C25G, U26G, C27U, C28U, A30G, G31U
DNA 1: CAATCTGAATTCCGGTCTCCC
DNA 2: TGGTGGCTACGACGGGATT
B10: GAGAGGU (DNA:RNA)
RNA: GGGAGACCGGAAUUCAGAUUGUCCGAGAGGUUUAAAUCCCGUCGUAGCCACCA
DNA 1: CAATCTGAATTCCGGTCTCCC
DNA 2: TGGTGGCTACGACGGGATT
B11: GAGCUGG (DNA:RNA)
RNA: B10 RNA with A28C, G29U, U31G
DNA 1: CAATCTGAATTCCGGTCTCCC
DNA 2: TGGTGGCTACGACGGGATT
B12: UAUUUUC (DNA:RNA)
RNA: B1 RNA with C25U, U26A, C27U, C28U, A30U, G31C
DNA 1: CAATCTGAATTCCGGTCTCCC
DNA 2: TGGTGGCTACGACGGGATT
B13: AAUGGAC (DNA:RNA)
RNA: B10 RNA with G25A, G27U, A28G, G30A, U31C
DNA 1: CAATCTGAATTCCGGTCTCCC
DNA 2: TGGTGGCTACGACGGGATT
B14: CGAUUAC (DNA:RNA)
RNA: B1 RNA with U26G, C27A, C28U, G31C
DNA 1: CAATCTGAATTCCGGTCTCCC
DNA 2: TGGTGGCTACGACGGGATT
B15: CCUUCUU (DNA:RNA)
RNA: B1 RNA with U26C, C27U, C28U, U29C, A30U, G31U
DNA 1: CAATCTGAATTCCGGTCTCCC
DNA 2: TGGTGGCTACGACGGGATT
B16: GUUGGGC (DNA:RNA)
RNA: B10 RNA with A26U, G27U, A28G, U31C
DNA 1: CAATCTGAATTCCGGTCTCCC
DNA 2: TGGTGGCTACGACGGGATT
B17: AGACAAG (DNA:RNA)
RNA: B1 RNA with C25A, U26G, C27A, U29A
DNA 1: CAATCTGAATTCCGGTCTCCC
DNA 2: TGGTGGCTACGACGGGATT
B18: GCCCUGC (DNA:RNA)
RNA: B1 RNA with C25G, U26C, A30G, G31C
DNA 1: CAATCTGAATTCCGGTCTCCC
DNA 2: TGGTGGCTACGACGGGATT
B19: CCUGCCA (DNA:RNA)
RNA: B1 RNA with U26C, C27U, C28G, U29C, A30C, G31A
DNA 1: CAATCTGAATTCCGGTCTCCC
DNA 2: TGGTGGCTACGACGGGATT
B20: AAGGGUC (DNA:RNA)
RNA: B10 RNA with G25A, A28G, G30U, U31C
DNA 1: CAATCTGAATTCCGGTCTCCC
DNA 2: TGGTGGCTACGACGGGATT

What follows are binders tested against T1, RBFOX1 RRM RbFoxmut (Fox-RRM*) (assay: EMSA; HiTS-Eq, 1 nM pool, 10 min; buffer printed only for the single-RNA assays: 10 mM Tris pH 7.5, 150 mM NaCl, 3.4 mM EDTA, 0.001% NP-40, 30 C). Settings: tags: His6 N-terminal (pET28a); label: 5' 32P.
Summary of the method: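 Purified RbFox RRM, wild type or mutant, was incubated for 10 min in 50 µL with 1 nM of a 5′-radiolabelled RNA pool carrying 7 randomized nucleotides, whose flanks were annealed to DNA oligonucleotides, over a series of increasing protein concentrations. Unbound RNA was resolved on 8% native PAGE, cut out, reverse-transcribed, barcoded by PCR and sequenced on an Illumina HiSeq 2500. Relative association constants were derived from changes in read counts for each RNA species versus the control reaction and normalised to the cognate motif.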
With B1 the binding signal was 0.0819 KA relative to UGCAUGU. For B2, the binding signal was 0.0523 KA relative to UGCAUGU. For B3, the binding signal was 0.127 KA relative to UGCAUGU. With B4 the binding signal was 0.0932 KA relative to UGCAUGU. B5 was tested, and the binding signal was 0.0654 KA relative to UGCAUGU. For B6, the binding signal was 0.112 KA relative to UGCAUGU. For B7, the binding signal was 0.625 KA relative to UGCAUGU. In the case of B8, the binding signal is reported as 0.048 KA relative to UGCAUGU. In the case of B9, the binding signal is reported as 0.366 KA relative to UGCAUGU. In the case of B10, the binding signal is reported as 0.0899 KA relative to UGCAUGU. For B11, the binding signal was 0.0789 KA relative to UGCAUGU. For B12, the binding signal was 0.067 KA relative to UGCAUGU. With B13 the binding signal was 0.0616 KA relative to UGCAUGU. For B14, the binding signal was 0.0881 KA relative to UGCAUGU. In the case of B15, the binding signal is reported as 0.0561 KA relative to UGCAUGU. B16 was tested, and the binding signal was 0.0814 KA relative to UGCAUGU. For B17, the binding signal was 0.0797 KA relative to UGCAUGU. With B18 the binding signal was 0.0824 KA relative to UGCAUGU. B19 was tested, and the binding signal was 0.0951 KA relative to UGCAUGU. B20 was tested, and the binding signal was 0.0995 KA relative to UGCAUGU.
